Hit rate of the full screen: of about 410,000 compounds, about 6,400 (1.6%) were called active. The inconclusive results got no clear call from the source; some entries with a clear call stand among them for comparison. Calls follow the shape of the dose curve; as a rule, active = well fitted inhibition curve with a large enough effect; inconclusive = small, poorly fitted or top-dose-only effect; inactive = no such curve, though single readings can be large or run the other way. Potencies of inconclusive entries are left out as doubtful fits.
molecular target: Glucagon-like peptide 1 receptor (Homo sapiens) (UniProt P43220); assay: qHTS of GLP-1 Receptor Inverse Agonists (Inhibition Mode); settings: HEK293 GLP-1R CRE-luciferase, luminescence, 24 h, GLP-1R form is constitutively active; series mostly up to 38.3 µM; also: nearly all actives have a fitted effect of over 55% in size
Summary of the method: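 HEK293 cells stably co-expressing constitutively active GLP-1R and a cAMP-responsive luciferase reporter were seeded in DMEM with 10% Nu serum, given compounds after 12 h, and incubated 24 h at 37 deg C. Luminescence was then read.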
Potency is read from the fitted curve at half-maximal effect; tags tell the direction and shape of the fitted curve.

Sequence of UniProt P43220 (P43220 whole entry, looked up): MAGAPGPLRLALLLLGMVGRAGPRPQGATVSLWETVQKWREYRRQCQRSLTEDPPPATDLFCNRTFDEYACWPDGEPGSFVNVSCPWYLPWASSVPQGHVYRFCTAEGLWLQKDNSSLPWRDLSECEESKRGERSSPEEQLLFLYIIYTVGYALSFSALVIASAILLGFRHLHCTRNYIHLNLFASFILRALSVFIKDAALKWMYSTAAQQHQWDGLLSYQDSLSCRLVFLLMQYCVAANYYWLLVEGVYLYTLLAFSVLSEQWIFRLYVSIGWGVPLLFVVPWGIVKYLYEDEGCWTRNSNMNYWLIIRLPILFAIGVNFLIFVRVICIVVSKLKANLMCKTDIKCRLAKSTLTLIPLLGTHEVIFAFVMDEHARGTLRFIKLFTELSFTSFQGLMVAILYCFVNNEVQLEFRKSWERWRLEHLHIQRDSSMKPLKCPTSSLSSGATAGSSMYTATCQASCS

Structure (SMILES) | Potency
Cc1ccccc1CC(=O)Nc1cc(C(C)(C)C)on1 | inconclusive [inhibitor, single point]
COc1cccc(NS(=O)(=O)c2ccc3[nH]cc(C(=O)N(C)C4CCCCC4)c(=O)c3c2)c1 | inactive
O=C(OCc1cn([C@H]2CN(C(=O)c3cccs3)[C@@H](c3ccc(Cl)cc3)C[C@@H]2O)nn1)c1ccccc1 | inconclusive [inhibitor, single point]
CCCCN1CC(=O)N2[C@H]3c4ccc(OC)cc4OC[C@@H]3[C@H](c3ccccc3)[C@]2(C)C1=O | inconclusive [inhibitor, single point]
CCCCc1nn2c(=O)cc(COC(=O)c3ccccc3NC(=O)c3ccccc3OC)nc2s1 | inactive
COc1ccc2oc(=O)cc(CN3CCN(c4ccccc4F)CC3)c2c1 | inactive
COc1cccc(C2=NOC(C(=O)NCc3ccc(F)cc3)C2)c1 (centres undefined) | inconclusive [inhibitor, partial curve]
COc1cccc(CNC(=O)c2ccc(NC(=O)N3CCCCc4ccccc43)cc2)c1 | inconclusive [inhibitor, full curve, poor fit]
Cc1ccc(C(=O)N2CCCC(C(=O)Nc3cccc(-c4ccc(F)cc4)c3)C2)cn1 (centres undefined) | inconclusive [inhibitor, single point]
Cc1cccc(N(C)c2ncnc3onc(-c4ccc(F)cc4)c23)c1C | inconclusive [inhibitor, single point]
O=C(c1cc(-c2cccc(O)c2)on1)N1CCc2ccccc2C1 | inconclusive [inhibitor, single point]
Cc1cc(C(=O)COc2cccc([N+](=O)[O-])c2)c(C)n1C1CC1 | inactive
CCSc1nnc(-c2ccc(C)cc2)c2ccccc12 | inconclusive [inhibitor, single point]
O=c1c2oc3ccccc3c2n(Cc2ccccc2)c(=O)n1Cc1ccc2c(c1)OCO2 | inactive
O=C(NNC(=O)c1ccc(Oc2ccc(C3SCCS3)cc2)o1)c1ccc(Cl)cc1 | inconclusive [inhibitor, partial curve, poor fit]
CCOC(=O)c1cccc(Nc2ccc3cc(S(=O)(=O)N4CCCCC4)ccc3n2)c1 | inconclusive [inhibitor, partial curve]
COc1ccccc1NC(=O)Cc1cccc2ccccc12 | inconclusive [inhibitor, single point]
CCN(CC)CCCN=Cc1c(O)n(-c2cccc(C)c2)c(=O)c2ccccc12 | inconclusive [inhibitor, full curve, poor fit]
COC(=O)c1ccc(OCCCCN2CC(C)OC(C)C2)cc1 (centres undefined) | inconclusive [inhibitor, partial curve]
CCCN1CCCc2cc(CN(CCCN3CCOCC3)C(=O)Nc3ccc(CC)cc3)ccc21 | inconclusive [inhibitor, single point]

Structure (SMILES) | Potency
COc1ccc(NC(=O)CSCC(=O)Nc2ccc(S(=O)(=O)N3CCCCC3)cc2)cc1 | inconclusive [inhibitor, single point]
Clc1ccc(OCCSc2ncccn2)c2ccccc12 | inconclusive [inhibitor, single point]
CC(c1ccco1)N(C(=O)Nc1ccc(Cl)cc1)c1ccccn1 (centres undefined) | inconclusive [inhibitor, single point]
O=C(CSc1nc2c([nH]c3ccccc32)c(=O)n1-c1ccccc1)N1CCCC1 | inactive
Cc1cc(Br)ccc1NC(=O)CN(C)C(=O)CSCc1ccccc1 | inconclusive [inhibitor, single point]
CC(Oc1ccc(Br)cc1)C(=O)NC1CCN(Cc2ccccc2)CC1 (centres undefined) | inconclusive [inhibitor, partial curve, poor fit]
Cc1ccc(C)c(S(=O)(=O)N2CCC(c3nc4c(nnn4Cc4ccc(F)cc4)c(=O)[nH]3)CC2)c1 | inconclusive [inhibitor, partial curve, poor fit]
O=C(NC1CCCC1)c1ccc(COc2ccccc2Br)o1 | inconclusive [inhibitor, full curve, poor fit]
CCOc1ccc(-n2c(-c3ccc(OC)cc3)c[n+]3c2CCCCC3)cc1 | inconclusive [inhibitor, full curve, poor fit]
C=CC(=O)N1C/C=C\C(c2ccc(OC)cc2)N(Cc2ccc(F)cc2)C(=O)C1 (centres undefined) | inconclusive [inhibitor, single point]
Cc1sc2nc(C3CC3)nc(SCC(=O)N3CCc4ccccc4C3)c2c1C | inconclusive [inhibitor, single point]
Cc1cc(N2CCN(C)CC2)nc2ccc(NC(=S)N3CCN(c4ccc(Cl)cc4)CC3)cc12 | inconclusive [inhibitor, partial curve, poor fit]
O=C(Nc1ccc2c(c1)OCCO2)C(c1ccnc2ccccc12)N1CCN(C/C=C/c2ccccc2)CC1 (centres undefined) | inconclusive [inhibitor, single point]
COc1ccc(S(=O)(=O)c2c(SC)nn(Cc3ccccc3C)c2NC(C)=O)cc1 | inconclusive [inhibitor, single point]
O=C(Nc1ccc(F)c([N+](=O)[O-])c1)c1ccc2c(c1)OCCO2 | inactive
CC1(C)CC2CC(C)(CN2C(=O)Cc2ccccc2)C1 (centres undefined) | inconclusive [inhibitor, partial curve, poor fit]
CCC(C)(C)C1CCc2[nH]nc(C(=O)NN)c2C1 (centres undefined) | inconclusive [inhibitor, single point]
O=C(CSc1nnc(COc2cccc3ccccc23)o1)N1c2ccccc2CCc2ccccc21 | inconclusive [inhibitor, full curve]
COc1ccccc1Cc1c(C2CCCCC2)nc2cc(C)c(Br)c(C)n12 | inconclusive [inhibitor, partial curve]
